Residue numbers refer to the chain shown, from its start.
Columns and labels:
[1] = system: HT29-huMSLN wild-type 2C3 cells; test: Colon cancer HT29-huMSLN wild-type cell line model; format: in vivo, BALB/c nude mouse; details: tail vein, twice a week x6, day 38 post-administration
[2] = system: SKOV3 cells; test: Ovarian cancer SKOV3 model; format: in vivo, BALB/c nude mouse; details: tail vein, twice a week x4, day 21 post-administration
[3] = Plasma stability, release of cytotoxic drug (LC-MS/MS); format: in vitro ADME, humans; details: human plasma, 37°C, within 28 days, 200 µg/mL
[4] = system: HT29-huMSLN wild-type 2C3 cells; test: Killing assay against MSLN-expressing cells, CellTiter Glo (Example 13); format: cell-based; details: 6 days
[5] = Plasma stability, release of cytotoxic drug (LC-MS/MS); format: in vitro ADME, cynomolgus monkeys; details: cynomolgus monkey plasma, 37°C, within 28 days, 200 µg/mL
[6] = system: COV644 cells; test: Ovarian cancer COV644 model (Example 18); format: in vivo, BALB/c nude mouse; details: tail vein, twice a week x5, day 38 post-administration
[7] = Pharmacokinetic study in SD rats; format: in vivo; details: intravenous 5 mg/kg
[8] = Plasma stability, release of cytotoxic drug (LC-MS/MS); format: in vitro ADME, SD rats; details: SD rat plasma, 37°C, within 28 days, 200 µg/mL
[9] = system: OVCAR3 cells; test: Ovarian cancer OVCAR3 model; format: in vivo, BALB/c nude mouse; details: tail vein, twice a week x5, day 23 post-administration
[10] = Plasma stability, release of cytotoxic drug (LC-MS/MS); format: in vitro ADME, ICR mice; details: ICR mouse plasma, 37°C, within 28 days, 200 µg/mL
[11] = system: NCI-H226 cells; test: Lung cancer NCI-H226 model; format: in vivo, BALB/c Nude mouse; details: tail vein, twice a week x5, day 28 post-administration
Procedure: NCI-H226 cells were cultured in a RPMI-1640 medium containing 10% fetal bovine serum at 37°C in a 5% CO2 atmosphere. On the day of inoculation, NCI-H226 cells in the exponential growth phase were collected. Tumor cells were first resuspended in a mixture of PBS and Matrigel (1:1) and then subcutaneously inoculated. Each BALB/c Nude mouse was subcutaneously inoculated with 5 × 10^6 NCI-H226 tumor cells. When the average tumor volume in each group of mice reached 150 mm^3, the mice were divided into groups for dosing. 55 mice were divided into 11 groups, after which dosing began. The dosing schedule was twice a week for a total of five administrations via tail vein injection at doses of 1 mg/kg body weight or 5 mg/kg body weight. After dosing began, body weight and tumor volume were measured twice weekly. Tumor volume was calculated using the formula of: Tumor Volume (mm^3) = 0.5 × Tumor long diameter × Tumor short diameter^2. Observations concluded on day 28 post-administration, followed by the euthanasia of all mice. Data analysis was performed using the t-test.

[12] = system: COV644 cells; test: Human ovarian cancer COV644 model (Example 26); format: in vivo, BALB/c Nude mouse; details: tail vein, twice a week x5, day 21 post-administration
[13] = system: CHOK1-huMSLN; test: Killing assay of B71 antibody-drug conjugates, CellTiter Glo (Example 25); format: cell-based; details: 6 days
[14] = system: COV644 tumor cells; test: pHAb dye endocytosis on COV644 tumor cells (Example 24); format: cell-based; details: 24 hours
[15] = system: CHOK1-huMSLN; test: Flow cytometry binding on CHOK1 cells overexpressing human mesothelin; details: FACS; for binding activity on the cells (in words): antibodies versus corresponding ADCs
[16] = system: COV644; test: Flow cytometry binding of antibodies and ADCs on COV644 cells (Example 23); details: FACS

B1: PR300159-8-B81 (conjugate)
heavy: QVQLVESGGGVVQPGRSLRLSCAASGFTFSSDGMNWVRQAPGKGLEWVAVIWNDGSNKYYADSVKGRFTISRDNSKNTLYLQMNSLRAEDTAVYYCARDRGPLWPLDYWGQGTLVTVSS[human IgG1 constant region left out]
light: DIQMTQSPSTLSASVGDRVTITCRASQSISRWLAWYQQKPGKAPKLLIYKASSLESGVPSRFSGSGSGTEFTLTISNLQPDDFATFYCQQYASYSRTFGQGTKVEIKRTVAAPSVFIFPPSDEQLKSGTASVVCLLNNFYPREAKVQWKVDNALQSGNSQESVTEQDSKDSTYSLSSTLTLSKADYEKHKVYACEVTHQGLSSPVTKSFNRGEC
average tumor volume ([1]; 1 mg/kg): 34 mm^3
tumor growth inhibition rate (TGI) ([1]; 1 mg/kg): 97%
average tumor volume ([1]; 5 mg/kg): completely eliminated
tumor growth inhibition rate (TGI, %) ([1]; 5 mg/kg): 100%
average tumor volume ([2]; 1.28 mg/kg): 657 mm^3
tumor growth inhibition rate (TGI, %) ([2]; 1.28 mg/kg): 67%
average tumor volume ([2]; 12.8 mg/kg): 122 mm^3
tumor growth inhibition rate (TGI, %) ([2]; 12.8 mg/kg): 94%
percentage of cytotoxic drug released [3]: less than 0.5%
killing effect (in words) [4]: significant killing effect
percentage of cytotoxic drug released [5]: less than 0.5%
average tumor volume ([6]; 1 mg/kg): 993 mm^3
tumor growth inhibition rate (TGI) ([6]; 1 mg/kg): 31%
average tumor volume ([6]; 5 mg/kg): completely eliminated
tumor growth inhibition rate (TGI, %) ([6]; 5 mg/kg): 100%
T1/2 ([7]; analyte Antibody-Drug Conjugate): 193 h
T1/2 ([7]; analyte Total Antibodies): 203 h
AUClast ([7]; analyte Toxin Molecule A1): 0.618 ng·h/mL
C0 ([7]; analyte Toxin Molecule A1): 0.117 ng/mL
Cmax ([7]; analyte Toxin Molecule A1): 0.177 ng/mL
MRTlast ([7]; analyte Toxin Molecule A1): 1.80 h
Tmax ([7]; analyte Toxin Molecule A1): 2 h
percentage of cytotoxic drug released [8]: less than 1.5%
average tumor volume ([9]; 1 mg/kg): 35 mm^3
tumor growth inhibition rate (TGI) ([9]; 1 mg/kg): 98%
average tumor volume ([9]; 5 mg/kg): 54 mm^3
tumor growth inhibition rate (TGI, %) ([9]; 5 mg/kg): 97%
percentage of cytotoxic drug released [10]: less than 2.5%
average tumor volume ([11]; 1 mg/kg): 556 mm^3
tumor growth inhibition rate (TGI, %) ([11]; 1 mg/kg): 64%
average tumor volume ([11]; 5 mg/kg): 164 mm^3
tumor growth inhibition rate (TGI, %) ([11]; 5 mg/kg): 89%

B2: PR300159-B71 (conjugate)
heavy: B1 heavy
light: B1 light with A92N
average tumor volume ([12]; 1 mg/kg): 853.97 mm^3
tumor growth inhibition rate (TGI, %) ([12]; 1 mg/kg): 72.93%
average tumor volume ([12]; 5 mg/kg): complete tumor eradication
tumor growth inhibition rate (TGI, %) ([12]; 5 mg/kg): 100%
killing effects (in words) [13]: significant killing effects
endocytosis activity (in words) [14]: good endocytosis activity
EC50 [15]: 470 pM
TOP [15]: 3181863 MFI
binding activity on the cells (in words) [15]: comparable binding activity

B3: PR300186-B71 (conjugate)
heavy: QVQLQESGPGLVKPSETLSLTCTVSGGSINNYYWSWVRQPPGKGLEWIGYIFYSGSTNSNPSLKSRVIISVDTSKNQFSLKLSSVTAADTAVYYCAREVGRIAVAGWFFDLWGRGTLVTVSS[human IgG1 constant region left out]
light: EIVMTQSPATLSVSPGERATLSCRASQSVNSNLAWYQQKPGQAPRLLIYGASTRATGIPARFSGSGSGTEFTLTISSLQSEDFAVYYCQQYNNWPLTFGQGTRLEIKRTVAAPSVFIFPPSDEQLKSGTASVVCLLNNFYPREAKVQWKVDNALQSGNSQESVTEQDSKDSTYSLSSTLTLSKADYEKHKVYACEVTHQGLSSPVTKSFNRGEC
killing effects (in words) [13]: significant killing effects
endocytosis activity (in words) [14]: good endocytosis activity
EC50 [15]: 480 pM
TOP [15]: 2474656 MFI
binding activity on the cells (in words) [15]: comparable binding activity

B4: PR300159-B81: ADC conjugate of anti-MSLN antibody PR300159 with DL-01; DAR value 8.0 (conjugate)
heavy: B1 heavy
light: B1 light with A92N
average tumor volume ([12]; 1 mg/kg): 1356.25 mm^3
tumor growth inhibition rate (TGI, %) ([12]; 1 mg/kg): 57.01%
average tumor volume ([12]; 5 mg/kg): complete tumor eradication
tumor growth inhibition rate (TGI, %) ([12]; 5 mg/kg): 100%
EC50 [16]: 900 pM
TOP [16]: 2263900 MFI

B5: PR300186-B81: ADC conjugate of anti-MSLN antibody PR300186 with DL-01; DAR value 8.0 (conjugate)
heavy: B3 heavy
light: B3 light
average tumor volume ([12]; 1 mg/kg): 1544.39 mm^3
tumor growth inhibition rate (TGI, %) ([12]; 1 mg/kg): 51.05%
average tumor volume ([12]; 5 mg/kg): 500.16 mm^3
tumor growth inhibition rate (TGI, %) ([12]; 5 mg/kg): 84.15%
EC50 [16]: > 100000 pM
TOP [16]: 669007 MFI

Reference: patent EP4566632A1, “MSLN ANTIBODY-DRUG CONJUGATE” (priority 2022, dated 2024)
